± gives the standard deviation of the averaged measurements. The list shows a part of the results.
Each sequence was assayed on PfAP2-I AP2 domain 3 (GST-tagged) (assay: gcPBM binding intensity (ln(normalized median fluorescence intensity)); higher = stronger DNA binding).
Summary of the method: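 For binding intensity, the highest Masliner-normalised natural-log median intensity across replicate spots of either probe orientation was taken. Protein bound to the array was stained with Alexa488 anti-GST antibody and scanned at 488 nm. The protein, GST-tagged P. falciparum DNA-binding domains from E. coli at about 25 μg on average, had been applied for 1 h to an Agilent 4 × 180k array of primer-extended double-stranded 36-bp intergenic genomic probes and negative controls.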

Sequence	gcPBM binding intensity (ln)
TAAAAAATAAGATATACACACATATATTTATTTATA [CACACA_site7158]	7.33 ± 0.38
AAATATTTAAATATTATGTATGATTATATATATATA [CACACA_negctrl_site590]	9.04 ± 0.085
AAATAAATAAATAAATGTACACATATATATATATAT [XGTACX_site7787]	9.36 ± 0.57
TCAATAAGATTATAAAGTACTTTTGAAGATATTATA [XGTACX_site7489]	7.54 ± 0.38
TTTCTTATTTTTTTCACACACTAAACATTTCAAATG [CACACA_site5259]	8.03 ± 0.67
AAAGAGAACATAAGTACACACATGTTCTTTTAGTAA [CACACA_site2824]	7.71 ± 0.13
ATAAATATGTATTGCTGTACATATATATAAATTATC [XGTACX_site8411]	7.71 ± 0.34
AATAGGAAAACCTATACACACTTTAAAAAAAATATA [CACACA_site4977]	7.41 ± 0.49
AAAAAAAAAAAAAAAACACACAAAAGCAAGAAAAAC [CACACA_site3198]	8.9 ± 0.54
AAAGTAAAAACACATACATGCATATACACATATAAC [TGCATGCA_site341]	7.96 ± 0.69
TATAAAATTCTGACTTGTACATGTGAAAAATAATTA [XGTACX_site1396]	7.78 ± 0.3
AAAGATGGAAAAAAAAATTTGTGTGTTGAAAGATAT [GTGCAC_negctrl_site19]	7.96 ± 0.92
AAAATACAATTTCTAGCACACAAAATATTATTATAA [CACACA_site9056]	7.78 ± 0.47
GCGTTGTTTTTAAAAAGTACATTTTTATATAAGTTA [XGTACX_site8780]	7.92 ± 0.5
TATATATATATATAATGTACACATTTTTATAACTAT [XGTACX_site5714]	9.21 ± 0.28
CTTAATATATGTGGCACACATGTGGAGTCCTATTAA [CACACA_site4281]	8.28 ± 0.45
AAAAAAATATTAATGTGTACATAATAATAACATATA [XGTACX_site8319]	7.75 ± 0.13
AAGAGTAAAATATGGTTGCACTAAAAATATATATTT [GTGCAC_site9484]	9.36 ± 0.13
ATAATAAAAATATACTGTACATTTGTAAATTCTTTT [XGTACX_site4655]	7.5 ± 0.43
TAAAACATATAAAGGTGTACGCCTTTTTGTATCAAT [XGTACX_site6064]	7.82 ± 0.39
TTATAGAGCTTATTCACACATACATATGTATTTATA [CACACA_site5775]	7.93 ± 0.52
GTCTACTACACTAAATGTACAAGAAAAAAGAAAAAA [XGTACX_site4660]	7.97 ± 0.35
TATATTTGTTGACACACACACAAAAAAAAAAAAAAA [CACACA_site7211]	8.19 ± 0.56

Sequence	gcPBM binding intensity (ln)
GTAGATATTTATTGAGTGCATGTTATAAAGGGAAAA [GTGCAC_site9481]	8.99 ± 0.29
TTTTTATTTTTTTACAGTACATAAAATAAATAAATA [XGTACX_site6596]	7.82 ± 0.36
TTTTTTTTATGGAAACGTACATACATACATTAAAGA [XGTACX_site7401]	7.83 ± 0.52
TATTTATATATTTATGCATGTTATAGGCAAAAATGT [TGCATGCA_site397]	7.89 ± 0.64
TATATTGATGATGATAGTACGTATGAATACAAAAAA [XGTACX_site4]	7.88 ± 0.65
CATAATAAGTATAACGTTAGTTACAAACAGCTTGTT [CACACA_negctrl_site937]	7.53 ± 0.74
TTTTTAAATAAATGTTTTTATTATATACATATCAAT [TGCATGCA_negctrl_site423]	7.33 ± 0.62
AAAATAATGTATATAGTGCAAATGAAAACGAAAAAA [GTGCAC_site9455]	10.32 ± 0.085
TATTATTCAAAATTTGTGCACAAAATTAAAGGAACA	10.8 ± 0.27
TTTGTTTTTTTGAGAGTGCAATATATATAAAAAGGG [GTGCAC_site9691]	11.2 ± 0.64
TTGGTGATATTTTTCTCACACATTTACCAGAGATGT [CACACA_site4684]	7.63 ± 0.52
ATTAGATATGTAAACTAAAATTATATTCATGATAAT [TGCATGCA_negctrl_site182]	7.44 ± 0.45
TCTAACAACATGCGCACACACATGAATATTCATATT [CACACA_site1540]	8.63 ± 0.33
ATATTTTTATTTTCTTTACACACCACATAATTTTTT [CACACA_site4060]	8.35 ± 0.47
TCACATCTTATATACTGTACATTTCGAATATAAATT [XGTACX_site2508]	8.01 ± 0.59
TTTCTTTTACATATTTGTACATATATAAATTTATAT [XGTACX_site1787]	8.37 ± 0.48
AAAAAAAAAAAAATATGTACTTATTTTTATGTTAAA [XGTACX_site8802]	7.75 ± 0.22
TTCTTTAATACTTATTGTACAATATAATAATCACAA [XGTACX_site6364]	8.26 ± 0.3
TACTATATAAGTAAGGCATGCATGCCGATTTTTTTA [TGCATGCA_site100]	7.45 ± 0.69
TGAAACCGTTACATGTGTACATATGTTACACATAAT [XGTACX_site7250]	7.83 ± 0.4
TACTTAAAATATTTAACAAATAAATAAATAAATAAA [XGTACX_negctrl_site523]	8.04 ± 1
ATCAATTTAATTTATTGTACTTGTTTGTTTTTTTAT [XGTACX_site7544]	7.71 ± 0.51
GATAACATAATATGTTGTACATAAAAATTTTTATCA [XGTACX_site1969]	8.04 ± 0.47

Sequence	gcPBM binding intensity (ln)
ATAAAGATATGACACACACACATATTATAGATATAT [CACACA_site7434]	8.08 ± 0.4
AACTTATTTAAATTCACACATATATAAAATACTTAT [CACACA_site4394]	7.8 ± 0.79
ACATATGACTATAATACACACTTGTATTATTAATAT [CACACA_site6951]	7.95 ± 0.73
TAATTTAAACAAAAAAGTACAAATTTCTTTTTATTA [XGTACX_site5244]	7.32 ± 0.38
ATTATTTTATTATAGTGTACTTTTTTAATCAAAGGA [XGTACX_site8921]	7.95 ± 0.4
AATTTTATTACTTTTACACACCTATATATTATTCAT [CACACA_site3273]	8.37 ± 0.4
TTTTAAAAAAAATATAAAAAAAGAGGAGGGATGGTA [GTGCAC_negctrl_site35]	8 ± 0.49
TACTCATAATATTGATAATTAAAAAGATAAACTATT [XGTACX_negctrl_site299]	7.36 ± 0.37
ATTTTAATTACATATACACACAAAGGTTCATAACAA [CACACA_site9008]	7.9 ± 0.41
TATGTTTTTACGTGTGTGCACTTTGTAGAGATAAGT	10.3 ± 0.18
GCCAAAAGGATATGCACACACACACCCATATATATA [CACACA_site2198]	9.1 ± 0.23
CATTATCATGTTTTTTGTACTCATAATAAAAAGCAG [XGTACX_site2056]	8.03 ± 0.21
CAAGGAACCGGACACACACACATAAATGTATTTATA [CACACA_site4574]	7.71 ± 0.46
AAAAATGAATTATTTTGTACATATATATATATATAT [XGTACX_site3410]	9.48 ± 0.54
AATAATTGTTAAAGTTGTACTATACGTATATAAGAA [XGTACX_site1432]	8.16 ± 0.32
TATATATAGAAACACACACACACCAAAGCGTAGCGC [CACACA_site62]	7.59 ± 0.69
ATTTACAAAAGGAAAGTGCAAACATGTGATTAAACA [CACACA_negctrl_site714]	9.34 ± 0.16
TTAATTATAAGAAAAAGTACTCATTACATTATAGAA [XGTACX_site678]	7.85 ± 0.21
ATATAAATATTCCACACACACACAAAAAAAAAAAAA [CACACA_site7678]	8.07 ± 0.51
TAGTCGTTTTTTTAATGTACTCACGCATAATATAAT [XGTACX_site6499]	8.04 ± 0.34
AAAGGATATAGACACACACACACATATATATATATA [CACACA_site2200]	9.57 ± 0.32
GTTCAAAATATGAACACACACATATAGATTTATATA [CACACA_site7054]	7.53 ± 0.38
ATCATTTTTAAAGGAACACACAAAAAAAATTAGAAT [CACACA_site1370]	7.83 ± 0.73

Sequence	gcPBM binding intensity (ln)
CATATACATCCACATACACACATACACCCATACACA [CACACA_site5038]	8.35 ± 0.057
TGAAAAGTAAAATACACACACATAATATAATTTATA [CACACA_site1989]	7.7 ± 0.32
ATTATTTTTTTTGTTACACACATGACTTATTTTTAT [CACACA_site3228]	8.01 ± 0.65
AAAATATGTATGTAAAGTACTAATATACAAATTTTT [XGTACX_site5186]	7.54 ± 0.59
TTTTTTTTTTTTGATGCACACACCTGAACGAGTTAA [CACACA_site317]	9.3 ± 0.22
TATTTTTATATATGACGTACTCTACAATTATTAATG [XGTACX_site5818]	7.8 ± 0.51
TATATGAACTTATATACACACCATTTTTGTAAATCT [CACACA_site4547]	7.62 ± 0.54
TATAATATATTATATACACACATTATGAAATCCACA [CACACA_site1330]	7.85 ± 0.35
AACACGCGCAGACACACACACACACCCACATATATA [CACACA_site2205]	8.18 ± 0.69
ATTTTGATGCATGGGTTGCACTAACTTTTGCCCAGA	9.92 ± 0.11
AAACAATACTGATATTGTACATAATAAAAAAAAATA [XGTACX_site3330]	7.94 ± 0.2
ATAAATATATTTTATAGTACATAAATATCAAAAAAA [XGTACX_site2334]	7.74 ± 0.48
AGTATACAGATATATACACACATATTTATATTTATA [CACACA_site6394]	7.5 ± 0.46
CATACATACCTATATACACACATATAAAATAATATA [CACACA_site7290]	7.93 ± 0.36
TGTTATTATTTGTACACACACATATATATCCTTGTT [CACACA_site3616]	8.1 ± 0.49
GGCAACATTTGAAACACACACACATACAAACAAACA [CACACA_site3307]	8.8 ± 0.092
TCTATATGTTGATTCACACATAAAGAATAAATAAAA [CACACA_site6017]	7.66 ± 0.61
TAAAAGGAACAAAATTGTACTTAAAAGACAAAGTTA [XGTACX_site7661]	7.33 ± 0.34
ACACAAAAATAAAAATGTACAAATTAAAAAAAATGA [XGTACX_site2083]	7.72 ± 0.54
TTTTTTTTTTTTTTGTCACACACCTTCATAAGAAAA [CACACA_site1166]	8.25 ± 0.78

Source: the supplement of paper PMC11417369
